PMC10407929
Several values for one entry are separate records, joined by “and”; a condition that tells them apart may be missing. Equal values may be shown once. Some of the results follow. Measured with an extract: partners may take part in the binding.

Legend:
Experiment in all cases: pull-down
SKP1 (Homo sapiens) = SKP1 (Homo sapiens) (UniProt P63208); settings: 150 mM NaCl, 50 mM Tris pH 8.0, 0.25% NP-40, 1 mM DTT; 4 C, 2 h; 100 ug nuclear extract; double strand, one strand shown
TFAM (Homo sapiens) = biological target: T1, TFAM (Homo sapiens) (UniProt Q00059); settings: 150 mM NaCl, 50 mM Tris pH 8.0, 0.25% NP-40, 1 mM DTT, 4 C, 2 h, 100 ug nuclear extract, double strand, one strand shown
T1 sequence: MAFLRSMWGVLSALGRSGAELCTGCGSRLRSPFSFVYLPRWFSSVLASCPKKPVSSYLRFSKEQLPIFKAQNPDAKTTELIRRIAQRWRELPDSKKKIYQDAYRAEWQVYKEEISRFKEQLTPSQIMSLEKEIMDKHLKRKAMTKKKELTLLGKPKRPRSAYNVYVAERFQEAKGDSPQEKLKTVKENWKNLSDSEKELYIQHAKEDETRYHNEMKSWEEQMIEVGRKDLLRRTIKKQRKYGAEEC

TFAP4 = biological target: T2, TFAP4 (UniProt Q01664); settings: 150 mM NaCl, 50 mM Tris pH 8.0, 0.25% NP-40, 1 mM DTT; 4 C, 2 h; 100 ug nuclear extract; double strand, one strand shown
T2 sequence: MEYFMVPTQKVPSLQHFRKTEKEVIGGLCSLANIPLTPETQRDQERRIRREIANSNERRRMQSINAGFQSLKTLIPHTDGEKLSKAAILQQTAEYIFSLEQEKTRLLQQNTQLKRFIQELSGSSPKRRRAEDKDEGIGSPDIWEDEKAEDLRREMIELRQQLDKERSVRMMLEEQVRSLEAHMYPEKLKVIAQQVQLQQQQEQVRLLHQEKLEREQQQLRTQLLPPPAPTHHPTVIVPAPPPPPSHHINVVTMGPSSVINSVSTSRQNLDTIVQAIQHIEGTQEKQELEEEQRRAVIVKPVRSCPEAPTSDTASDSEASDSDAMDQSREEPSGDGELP

TPP1 (Homo sapiens) = biological target: T3, TPP1 (Homo sapiens) (UniProt O14773); settings: 150 mM NaCl, 50 mM Tris pH 8.0, 0.25% NP-40, 1 mM DTT; 4 C, 2 h; 100 ug nuclear extract; double strand, one strand shown
T3 sequence: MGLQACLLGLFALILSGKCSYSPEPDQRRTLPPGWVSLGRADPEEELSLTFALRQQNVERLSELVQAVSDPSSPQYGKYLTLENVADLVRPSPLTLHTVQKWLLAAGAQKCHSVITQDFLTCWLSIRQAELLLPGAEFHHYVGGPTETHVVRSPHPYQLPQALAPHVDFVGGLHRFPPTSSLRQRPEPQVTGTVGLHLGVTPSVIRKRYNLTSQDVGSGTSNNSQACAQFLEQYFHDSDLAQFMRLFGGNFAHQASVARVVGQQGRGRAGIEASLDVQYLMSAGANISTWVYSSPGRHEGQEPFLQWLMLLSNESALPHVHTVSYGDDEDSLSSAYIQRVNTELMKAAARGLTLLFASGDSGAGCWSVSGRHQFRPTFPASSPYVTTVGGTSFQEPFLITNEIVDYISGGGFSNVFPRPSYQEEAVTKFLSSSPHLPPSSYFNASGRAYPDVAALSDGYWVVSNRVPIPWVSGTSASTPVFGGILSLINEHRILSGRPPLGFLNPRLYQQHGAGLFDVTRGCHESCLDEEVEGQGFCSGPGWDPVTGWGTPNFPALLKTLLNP

XPC (Homo sapiens) = XPC (Homo sapiens) (UniProt Q01831); settings: 150 mM NaCl, 50 mM Tris pH 8.0, 0.25% NP-40, 1 mM DTT; 4 C, 2 h; 100 ug nuclear extract; double strand, one strand shown
XRCC1 (Homo sapiens) = XRCC1 (Homo sapiens) (UniProt P18887); settings: 150 mM NaCl, 50 mM Tris pH 8.0, 0.25% NP-40, 1 mM DTT, 4 C, 2 h, 100 ug nuclear extract, double strand, one strand shown
XRCC5 (Homo sapiens) = XRCC5 (Homo sapiens) (UniProt P13010); settings: 150 mM NaCl, 50 mM Tris pH 8.0, 0.25% NP-40, 1 mM DTT; 4 C, 2 h; 100 ug nuclear extract; double strand, one strand shown
XRCC6 (Homo sapiens) = XRCC6 (Homo sapiens) (UniProt P12956); settings: 150 mM NaCl, 50 mM Tris pH 8.0, 0.25% NP-40, 1 mM DTT; 4 C, 2 h; 100 ug nuclear extract; double strand, one strand shown
ZNF740 (Homo sapiens) = biological target: T4, ZNF740 (Homo sapiens) (UniProt Q8NDX6); settings: 150 mM NaCl, 50 mM Tris pH 8.0, 0.25% NP-40, 1 mM DTT; 4 C, 2 h; 100 ug nuclear extract; double strand, one strand shown
T4 sequence: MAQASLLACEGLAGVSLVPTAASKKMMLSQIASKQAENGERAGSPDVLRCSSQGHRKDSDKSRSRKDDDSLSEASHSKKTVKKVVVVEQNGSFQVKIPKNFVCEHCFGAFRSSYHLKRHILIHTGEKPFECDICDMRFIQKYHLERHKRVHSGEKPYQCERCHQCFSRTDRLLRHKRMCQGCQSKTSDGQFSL

TDP1 (Homo sapiens) = TDP1 (Homo sapiens) (UniProt Q9NUW8); settings: 150 mM NaCl, 50 mM Tris pH 8.0, 0.25% NP-40, 1 mM DTT; 4 C, 2 h; 100 ug nuclear extract; double strand, one strand shown
TUBA4A (Homo sapiens) = TUBA4A (Homo sapiens) (UniProt P68366); settings: 150 mM NaCl, 50 mM Tris pH 8.0, 0.25% NP-40, 1 mM DTT; 4 C, 2 h; 100 ug nuclear extract; double strand, one strand shown
USF2 = USF2 (UniProt Q15853); settings: 150 mM NaCl, 50 mM Tris pH 8.0, 0.25% NP-40, 1 mM DTT; 4 C, 2 h; 100 ug nuclear extract; double strand, one strand shown
[1] = 5mC at 15,17 (strand 1), 5mC at 14,16 (strand 2)

Sequence of UniProt Q01831 (Q01831 whole entry): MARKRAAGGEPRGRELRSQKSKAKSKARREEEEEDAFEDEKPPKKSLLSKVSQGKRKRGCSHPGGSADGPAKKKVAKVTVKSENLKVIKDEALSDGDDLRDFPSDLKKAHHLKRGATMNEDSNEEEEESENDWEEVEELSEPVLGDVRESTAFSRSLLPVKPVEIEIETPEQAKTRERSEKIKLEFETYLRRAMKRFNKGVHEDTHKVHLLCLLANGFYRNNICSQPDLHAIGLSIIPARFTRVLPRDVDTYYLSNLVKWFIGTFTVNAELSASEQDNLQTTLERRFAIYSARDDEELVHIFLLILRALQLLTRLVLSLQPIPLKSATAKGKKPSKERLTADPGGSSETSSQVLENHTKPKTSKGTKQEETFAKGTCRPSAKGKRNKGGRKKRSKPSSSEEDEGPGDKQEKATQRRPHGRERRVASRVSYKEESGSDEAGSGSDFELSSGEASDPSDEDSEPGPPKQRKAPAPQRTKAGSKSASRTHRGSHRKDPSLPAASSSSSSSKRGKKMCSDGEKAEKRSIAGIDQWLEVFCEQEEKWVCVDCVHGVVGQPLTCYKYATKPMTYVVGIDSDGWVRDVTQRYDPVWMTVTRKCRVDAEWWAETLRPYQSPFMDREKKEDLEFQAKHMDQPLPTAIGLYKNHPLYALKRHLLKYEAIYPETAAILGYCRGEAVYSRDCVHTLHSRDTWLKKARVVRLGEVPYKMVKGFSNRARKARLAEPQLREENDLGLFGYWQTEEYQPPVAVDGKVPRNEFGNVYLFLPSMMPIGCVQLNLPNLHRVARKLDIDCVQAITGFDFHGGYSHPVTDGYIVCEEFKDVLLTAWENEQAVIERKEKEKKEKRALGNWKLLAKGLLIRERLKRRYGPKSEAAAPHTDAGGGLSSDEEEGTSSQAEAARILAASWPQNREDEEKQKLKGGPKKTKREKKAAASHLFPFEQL
Sequence of UniProt P13010 (P13010 whole entry): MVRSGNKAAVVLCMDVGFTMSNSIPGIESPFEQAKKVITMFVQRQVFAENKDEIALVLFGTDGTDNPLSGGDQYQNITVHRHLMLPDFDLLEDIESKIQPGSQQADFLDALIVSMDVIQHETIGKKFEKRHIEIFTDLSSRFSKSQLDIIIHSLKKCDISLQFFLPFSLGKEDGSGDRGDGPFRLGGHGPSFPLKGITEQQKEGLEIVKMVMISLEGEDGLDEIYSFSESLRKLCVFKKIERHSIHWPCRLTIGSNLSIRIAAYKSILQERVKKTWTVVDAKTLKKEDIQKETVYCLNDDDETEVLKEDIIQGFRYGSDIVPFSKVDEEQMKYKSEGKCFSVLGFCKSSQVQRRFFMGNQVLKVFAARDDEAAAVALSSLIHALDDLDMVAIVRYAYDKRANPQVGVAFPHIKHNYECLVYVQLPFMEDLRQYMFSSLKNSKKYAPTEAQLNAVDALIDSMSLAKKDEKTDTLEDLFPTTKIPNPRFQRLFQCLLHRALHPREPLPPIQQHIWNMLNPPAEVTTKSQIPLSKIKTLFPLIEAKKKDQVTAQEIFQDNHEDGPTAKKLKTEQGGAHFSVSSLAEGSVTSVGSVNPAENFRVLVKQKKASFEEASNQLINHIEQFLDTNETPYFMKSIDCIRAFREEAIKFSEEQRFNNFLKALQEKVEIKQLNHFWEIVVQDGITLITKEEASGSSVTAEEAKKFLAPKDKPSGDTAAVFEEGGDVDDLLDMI
Sequence of UniProt P12956 (P12956 whole entry): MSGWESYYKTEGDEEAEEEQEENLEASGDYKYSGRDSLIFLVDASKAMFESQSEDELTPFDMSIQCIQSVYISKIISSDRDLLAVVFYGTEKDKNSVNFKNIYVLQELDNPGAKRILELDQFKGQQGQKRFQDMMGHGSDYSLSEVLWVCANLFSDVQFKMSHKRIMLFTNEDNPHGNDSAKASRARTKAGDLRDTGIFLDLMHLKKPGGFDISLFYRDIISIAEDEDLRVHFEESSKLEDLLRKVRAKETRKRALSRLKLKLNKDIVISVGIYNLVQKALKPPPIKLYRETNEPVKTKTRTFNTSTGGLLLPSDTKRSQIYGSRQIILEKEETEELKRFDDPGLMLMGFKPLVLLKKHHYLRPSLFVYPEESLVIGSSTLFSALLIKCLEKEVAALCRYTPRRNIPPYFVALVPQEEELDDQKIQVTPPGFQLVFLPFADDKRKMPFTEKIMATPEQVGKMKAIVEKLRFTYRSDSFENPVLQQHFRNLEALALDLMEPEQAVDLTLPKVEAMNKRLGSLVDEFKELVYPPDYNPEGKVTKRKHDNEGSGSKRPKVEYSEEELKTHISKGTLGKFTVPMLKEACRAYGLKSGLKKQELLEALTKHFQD
Sequence of UniProt Q15853 (Q15853 whole entry): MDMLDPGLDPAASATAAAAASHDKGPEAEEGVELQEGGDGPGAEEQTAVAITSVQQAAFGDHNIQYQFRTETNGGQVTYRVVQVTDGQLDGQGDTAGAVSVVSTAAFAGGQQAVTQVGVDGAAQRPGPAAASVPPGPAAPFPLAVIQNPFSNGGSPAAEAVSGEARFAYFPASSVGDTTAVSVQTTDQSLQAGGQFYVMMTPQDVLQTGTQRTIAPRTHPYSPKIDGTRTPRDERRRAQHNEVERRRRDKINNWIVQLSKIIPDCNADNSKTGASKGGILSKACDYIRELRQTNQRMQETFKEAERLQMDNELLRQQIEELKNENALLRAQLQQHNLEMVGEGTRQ
Sequence of UniProt Q9NUW8 (Q9NUW8 whole entry): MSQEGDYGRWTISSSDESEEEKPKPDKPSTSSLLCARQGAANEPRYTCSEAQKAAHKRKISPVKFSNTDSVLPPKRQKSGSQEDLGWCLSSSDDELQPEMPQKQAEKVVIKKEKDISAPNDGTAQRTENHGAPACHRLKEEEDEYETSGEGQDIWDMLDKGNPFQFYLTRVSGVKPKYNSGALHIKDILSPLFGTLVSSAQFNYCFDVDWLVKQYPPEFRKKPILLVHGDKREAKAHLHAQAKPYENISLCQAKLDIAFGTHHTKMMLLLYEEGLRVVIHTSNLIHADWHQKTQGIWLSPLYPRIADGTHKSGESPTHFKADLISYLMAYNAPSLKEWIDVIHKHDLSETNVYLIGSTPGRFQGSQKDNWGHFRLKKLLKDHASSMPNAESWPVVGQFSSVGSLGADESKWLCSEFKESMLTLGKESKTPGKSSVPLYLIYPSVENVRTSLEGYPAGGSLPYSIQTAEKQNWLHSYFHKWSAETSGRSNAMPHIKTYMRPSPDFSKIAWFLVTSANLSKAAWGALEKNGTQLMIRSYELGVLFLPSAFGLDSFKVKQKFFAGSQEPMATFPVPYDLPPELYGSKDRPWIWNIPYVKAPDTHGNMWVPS
Sequence of UniProt P63208 (P63208 whole entry): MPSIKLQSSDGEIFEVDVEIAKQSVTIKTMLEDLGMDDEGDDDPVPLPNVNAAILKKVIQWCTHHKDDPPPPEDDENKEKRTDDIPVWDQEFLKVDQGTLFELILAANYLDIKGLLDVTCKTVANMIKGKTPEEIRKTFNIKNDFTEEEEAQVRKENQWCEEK
Sequence of UniProt P68366 (P68366 whole entry): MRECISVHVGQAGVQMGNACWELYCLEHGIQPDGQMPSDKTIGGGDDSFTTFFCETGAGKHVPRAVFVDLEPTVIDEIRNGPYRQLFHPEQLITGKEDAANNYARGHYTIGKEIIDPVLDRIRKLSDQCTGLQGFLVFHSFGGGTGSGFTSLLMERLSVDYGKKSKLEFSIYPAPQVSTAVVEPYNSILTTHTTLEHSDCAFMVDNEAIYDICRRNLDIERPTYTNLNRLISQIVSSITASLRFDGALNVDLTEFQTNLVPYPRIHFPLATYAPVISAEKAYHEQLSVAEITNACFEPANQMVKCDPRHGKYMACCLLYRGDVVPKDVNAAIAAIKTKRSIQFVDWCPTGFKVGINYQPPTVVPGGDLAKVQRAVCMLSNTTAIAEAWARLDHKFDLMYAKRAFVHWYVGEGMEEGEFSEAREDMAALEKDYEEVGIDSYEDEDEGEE

In the case of “GCCGCCGCCCTTCTCGCGAGACTGCCGGGCC [CGCG bait]”, the half-maximal binding (SKP1 (Homo sapiens)) is reported as 59.5 nM, the half-maximal binding (TFAM (Homo sapiens)) is reported as 162 nM and the half-maximal binding (TFAP4) is reported as 247 nM. For the same sequence, the half-maximal binding (TPP1 (Homo sapiens)) was 424 nM, the half-maximal binding (XPC (Homo sapiens)) was 30.5 nM and 122 nM and the half-maximal binding (XRCC1 (Homo sapiens)) was 120 nM. For the same sequence, the half-maximal binding (XRCC5 (Homo sapiens)) was 101 nM and the half-maximal binding (XRCC6 (Homo sapiens)) was 99.6 nM.

Work on GAGAGCCCCGCCCCCTGGCT [SP/KLF bait] yielded a half-maximal binding (XRCC1 (Homo sapiens)) of 354 nM, a half-maximal binding (XRCC5 (Homo sapiens)) of 40.6 nM and a half-maximal binding (XRCC6 (Homo sapiens)) of 34.5 nM. The half-maximal binding (ZNF740 (Homo sapiens)) was 135 nM.

Work on “GCCGCCGCCCTTCTCGCGAGACTGCCGGGCC [methylated CGCG bait]” yielded a half-maximal binding (TFAM (Homo sapiens); [1]) of 169 nM and a half-maximal binding (XRCC1 (Homo sapiens); [1]) of 114 nM.

“GCCGCCGCCCTCCCACGCGCTGCCGGGCC [BEND3 bait]” was tested, and the half-maximal binding (TDP1 (Homo sapiens)) was 103 nM, the half-maximal binding (TFAM (Homo sapiens)) was 139 nM and the half-maximal binding (TFAP4) was 440 nM. It also gave a half-maximal binding (TUBA4A (Homo sapiens)) of 101 nM, a half-maximal binding (USF2) of 156 nM and a half-maximal binding (XPC (Homo sapiens)) of 89 nM. The half-maximal binding (XRCC1 (Homo sapiens)) was 144 nM, the half-maximal binding (XRCC5 (Homo sapiens)) was 10.5 nM and the half-maximal binding (XRCC6 (Homo sapiens)) was 10.6 nM. For the same sequence, the half-maximal binding (ZNF740 (Homo sapiens)) was 33.4 nM.

“GAGAGAAAATAAAACTGGCT [SP/KLF negative control bait]” was tested, and the half-maximal binding (TFAM (Homo sapiens)) was 479 nM and the half-maximal binding (XRCC1 (Homo sapiens)) was 390 nM.
